Measurements published in PubChem BioAssay AID1461 (National Center for Advancing Translational Sciences (NCATS), 2008).
About 2,300 (1%) of roughly 220,000 compounds were called active. Inconclusive means that the source gave no clear call. Such entries were picked first, then a sample of the others. Calls follow the shape of the dose curve; as a rule, active = well fitted inhibition curve with a large enough effect; inconclusive = small, poorly fitted or top-dose-only effect, or effect the other way; inactive = no such curve, though single readings can be large or run the other way. No potency is given beside an inconclusive call; the fits are too rough.
% is scaled to controls: 0 for no effect and ±100 for the full control effect; potency is read from the fitted curve at half-maximal effect; tags tell the direction and shape of the fitted curve.
Also: nearly all actives have a fitted effect of over 50% in size.

These compounds were tested against Neuropeptide S receptor (Homo sapiens) (UniProt Q6W5P4) (assay: qHTS Assay for Antagonists of the Neuropeptide S Receptor: cAMP Signal Transduction). Conditions: CHO-NPSR cells, cAMP TR-FRET, antagonist mode; activity change, negative = inhibition: at 38.3 µM (top of the series) unless noted.
Sequence of UniProt Q6W5P4 (Q6W5P4 whole entry, looked up): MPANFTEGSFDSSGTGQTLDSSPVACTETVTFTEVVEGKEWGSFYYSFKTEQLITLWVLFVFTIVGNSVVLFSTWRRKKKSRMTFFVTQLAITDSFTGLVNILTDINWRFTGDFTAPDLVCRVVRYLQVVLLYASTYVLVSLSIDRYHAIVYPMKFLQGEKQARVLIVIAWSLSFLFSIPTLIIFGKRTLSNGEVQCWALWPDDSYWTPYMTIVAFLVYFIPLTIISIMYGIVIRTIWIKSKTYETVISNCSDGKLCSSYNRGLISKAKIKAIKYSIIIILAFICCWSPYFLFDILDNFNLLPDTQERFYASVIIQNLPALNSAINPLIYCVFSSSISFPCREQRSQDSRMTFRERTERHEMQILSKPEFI
In the case of `Cc1cc(/C([O-])=C(/C(=S)Nc2ccccc2)[n+]2ccccc2)c(C)n1-c1ccccc1`, the Potency was inconclusive [inhibitor, single point]. In the case of `OCCN1CCN(C(=S)c2ccc(Cl)cc2)CC1`, the “activity change, negative = inhibition” value was inactive: 1.34% [at 46.1 µM]. `CC1CCC(C(C)C)C(OC(=O)C[n+]2cc(-c3ccc(Cl)cc3)n3c2CCC3)C1` (configuration not stated) was tested, and the Potency was inconclusive [inhibitor, single point]. For `COC(=O)c1cc(Br)c(=O)n(-c2nccs2)c1`, the Potency was inconclusive [activator, partial curve]. In the case of `CN(C)c1cc2c(Nc3ccc4c(cnn4Cc4ccccc4)c3)ncnc2cn1`, the Potency was inconclusive [inhibitor, partial curve]. In the case of `COc1ccccc1/C=C/C=N/N1CCN(c2ccccn2)CC1`, the Potency was inconclusive [inhibitor, single point]. For `O=C1CC(c2ccco2)CC(O)=C1C=NCCN1CCNCC1` (configuration not stated), the “activity change, negative = inhibition” value was inactive: 6.97% [at 46.1 µM]. In the case of `CCN(Cc1ccccc1)C(c1cccc(C#N)c1)c1nnnn1C(C)(C)C` (configuration not stated), the Potency was inconclusive [inhibitor, partial curve, poor fit]. In the case of `CCN(/N=C/C=C/c1ccccc1)c1cc(=O)n(C)c(=O)[nH]1`, the “activity change, negative = inhibition” value was inactive: -15.8%. With `N=C1C(c2ccc(Br)cc2)=C(O)C2CCc3ccccc3N12` (configuration not stated) the Potency was inconclusive [inhibitor, partial curve]. For `COc1ccc(-c2cc(C(F)(F)F)nc(SCCC(=O)Nc3cc(C)on3)n2)cc1`, the Potency was inconclusive [inhibitor, partial curve]. `Cc1ccc(C2CC(c3cccs3)=NN2C(=O)CSC2=NN3CCCC(=O)N=C3S2)cc1` (configuration not stated) was tested, and the “activity change, negative = inhibition” value was inactive: -5.22% [at 46.1 µM]. With `COc1ccc(C(=O)NC(=S)Nc2ccccc2F)cc1` the “activity change, negative = inhibition” value was inactive: 6.78%. With `C=CCSC1=N/C(=C\c2cc(OC)c3c(c2)OCO3)C(=O)S1` the “activity change, negative = inhibition” value was inactive: -10.5% [at 46.1 µM]. In the case of `C[C@@H]1CC=C[C@H]2[C@H]1C(=O)N(Cc1ccccc1)[C@H]2c1cccc([N+](=O)[O-])c1`, the Potency was inconclusive [inhibitor, single point]. With `COc1ccc(CN2C(=O)c3cccnc3C2Nc2ccc(OC)c(Cl)c2)cc1` (configuration not stated) the “activity change, negative = inhibition” value was inactive: -13% [at 46.1 µM]. With `CCCCn1c(SCC(=O)Nc2cc(C)on2)nnc1-c1ccco1` the Potency was inconclusive [inhibitor, single point]. With `COc1c(N2CCN(C(=S)NCc3ccccc3)C(C)C2)c(F)cc2c(=O)c(C(=O)O)cn(C3CC3)c12` (configuration not stated) the Potency was inconclusive [inhibitor, partial curve]. For `CC1=CC(=O)CC(C)(C)C1(O)/C=C/C(C)=C/C(=O)O` (configuration not stated), the “activity change, negative = inhibition” value was inactive: -10.5%. `Cn1c(=O)n(Cc2ccccc2)c(=O)c2c1nc1n2CCCN1Cc1ccccc1` was tested, and the Potency was inconclusive [inhibitor, partial curve, poor fit]. With `CC(C)C(=O)NC(=S)Nc1ccc(S(=O)(=O)N(C)Cc2ccccc2)cc1` the Potency was inconclusive [inhibitor, single point]. For `CCc1nc(Nc2ccncc2)c2oc3ccccc3c2n1`, the “activity change, negative = inhibition” value was inactive: -7.34% [at 46.1 µM]. In the case of `CCOC(=O)c1[nH]c(C)c(C(=O)OCc2c(C)noc2C)c1C`, the “activity change, negative = inhibition” value was inactive: -0.657% [at 46.1 µM]. With `CCCC(c1nnnn1Cc1ccco1)N1CCN(c2cc(Cl)ccc2C)CC1` (configuration not stated) the Potency was inconclusive [inhibitor, single point]. `Cn1cccc1/C=C1\SC(=Nc2ccccc2)NC1=O` was tested, and the “activity change, negative = inhibition” value was inactive: 31.9%. With `Cc1ccnc(N2C(=O)c3cccc4c([N+](=O)[O-])ccc(c34)C2=O)c1` the Potency was active: 10 µM. With `Cc1ccc(N=Cc2cc(Cc3ccccc3Cl)cc([N+](=O)[O-])c2O)c(O)c1` the Potency was inconclusive [inhibitor, single point]. For `Cc1ccsc1/C=C1\CCC(C2CCCC2)C1=O` (configuration not stated), the Potency was inconclusive [inhibitor, single point]. For `CCSC(=Nc1ccccc1)C1=C(O)COC1=O`, the “activity change, negative = inhibition” value was inactive: 1.43% [at 46.1 µM]. For `O=C(Nc1cccc(O)c1)c1cc(S(=O)(=O)N2CCCC2)ccc1Cl`, the “activity change, negative = inhibition” value was inactive: -15.2% [at 46.1 µM]. With `COc1ccc(Cn2nnnc2C(C(C)C)N(Cc2ccco2)Cc2cccs2)cc1` (configuration not stated) the Potency was inconclusive [inhibitor, full curve]. With `O=C1CC(c2ccc(Cl)cc2)CC(O)=C1C=NCc1ccc(Cl)c(Cl)c1` (configuration not stated) the Potency was inconclusive [inhibitor, single point]. For `COc1ccc(S(=O)(=O)N2CCOCC2)cc1NC(=O)c1ccc(-n2nc(C)cc2C)cc1`, the “activity change, negative = inhibition” value was inactive: -1.22%. In the case of `Cc1ccc(NS(=O)(=O)c2cc([N+](=O)[O-])ccc2NNC(=S)Nc2cccc(Cl)c2)c(C)c1`, the “activity change, negative = inhibition” value was inactive: -25.6%. For `COc1cc(/C=c2\sc3n(c2=O)C(c2ccccc2)C(c2ccccc2)=NN=3)ccc1O` (configuration not stated), the Potency was inconclusive [inhibitor, single point]. `COc1ccc(Nc2cc(C)nc3ncnn23)c(OC)c1` was tested, and the “activity change, negative = inhibition” value was inactive: -6.43% [at 46.1 µM]. For `Cc1cc2cc3c(cc2nc1SCC(=O)Nc1ccccc1)CCC3`, the Potency was inconclusive [inhibitor, single point]. `COc1ccc(-c2nc3ccccc3o2)cc1NC(=O)CSc1ccc(Cl)cc1` was tested, and the Potency was inconclusive [inhibitor, single point]. For `O=C(CCC1CCCC1)Nc1ccccc1-c1ccccc1`, the Potency was inconclusive [inhibitor, single point]. `CCCSc1nc2c(c(=O)n(C)c(=O)n2C)n1Cc1ccc(C)cc1` was tested, and the Potency was inconclusive [inhibitor, partial curve]. With `COc1ccc(Cn2nnnc2CN2CCC(c3nc4ccccc4s3)CC2)cc1` the Potency was inconclusive [inhibitor, partial curve]. For `CC1CCN(C(=O)/C(=C/c2ccccc2Cl)c2ccccc2)CC1`, the Potency was inconclusive [inhibitor, single point]. `CCOC(=O)c1c(C)oc2c1c(C(c1cccnc1)N1CCN(C)CC1)c(O)c1ccccc12` (configuration not stated) was tested, and the Potency was inconclusive [inhibitor, single point]. `Cc1ccc(N=Cc2cc3c(cc2O)OC(N)=C(C#N)C3c2ccccc2)cc1` (configuration not stated) was tested, and the Potency was inconclusive [inhibitor, single point]. `COc1ccc(CN(CCC(c2ccccc2)c2ccc(OC(C)C)cc2)C(=O)CCl)cc1OC` (configuration not stated) was tested, and the Potency was active: 10 µM. In the case of `O=C(c1cccc(C(F)(F)F)c1)N1CCOC12CCN(c1ncc(C(F)(F)F)cc1Cl)CC2`, the Potency was inconclusive [inhibitor, single point]. In the case of `CC/C(=C/c1sc2ccc(C)cc2[n+]1CCCS(=O)(=O)[O-])SC`, the “activity change, negative = inhibition” value was inactive: 26.4%. `Cc1nc(N2CCN(C(=O)c3ccc(Cl)cc3)CC2)c(C#N)c2c1COC(C)(C)C2` was tested, and the Potency was inconclusive [inhibitor, single point]. In the case of `COc1ccc(/C=C/C(=O)NCc2cn(C)nc2C)cc1COc1ccc(Br)cc1`, the Potency was inconclusive [inhibitor, single point]. With `O=S(=O)(c1cccc(NC(=S)N2CCN(c3ccccc3)CC2)c1)C(F)F` the Potency was inconclusive [inhibitor, single point]. For `Cc1cccc(-c2nnc3sc(-c4ccccc4C)nn23)c1`, the Potency was inconclusive [inhibitor, partial curve]. For `Cc1cc(C)cc(NC(=O)Cn2cc3c(n2)CCCCC3)c1`, the “activity change, negative = inhibition” value was inactive: -7.61% [at 46.1 µM]. In the case of `COc1cc(NC(=O)COc2ccc(-n3cnnn3)cc2)c(OC)cc1Cl`, the “activity change, negative = inhibition” value was inactive: -4.37% [at 46.1 µM]. For `CCOc1ccc(NC(=O)CCSc2nc3c(c(CC)c2C#N)C(=O)CC(C)(C)C3)cc1`, the Potency was inconclusive [inhibitor, partial curve]. In the case of `COCC(C)NC(=O)CCS(=O)(=O)c1nc(-c2ccc(OC)cc2)cc(C(F)(F)F)n1` (configuration not stated), the “activity change, negative = inhibition” value was inactive: -21.4% [at 46.1 µM]. `O=C(/C=C/c1ccco1)Nc1ccc2c(c1)OCO2` was tested, and the “activity change, negative = inhibition” value was inactive: -9.58%. For `COc1cc(C(=O)Nc2nc(-c3ccc(Cl)cc3)c(C)s2)ccc1OCC(=O)Nc1ccc(F)cc1`, the Potency was active: 3.98 µM. In the case of `CCOC(=O)/C(C#N)=C/c1cc(C)n(-c2ccc(C)cc2)c1C`, the Potency was inconclusive [inhibitor, single point]. For `COC(=O)c1ccc(CN2C(=O)NC3(CCCCC3)C2=O)cc1`, the “activity change, negative = inhibition” value was inactive: 8.19%. With `CCN(CC)C(C(=O)Nc1ccc(C(C)C)cc1)c1ccc2c(c1)OCO2` (configuration not stated) the Potency was inconclusive [inhibitor, single point]. In the case of `Cc1nn(C)cc1CN(C)C(=O)c1cc(-c2ccccc2)nc2ccc(Br)cc12`, the Potency was inconclusive [inhibitor, single point]. In the case of `CCc1c(C)sc(NC(=O)C2CCCCC2C(=O)O)c1C(N)=O` (configuration not stated), the “activity change, negative = inhibition” value was inactive: -10.2% [at 46.1 µM]. `CC(C)CCNC(=O)CN(Cc1ccc2c(c1)OCO2)C(=O)Cn1nnc(-c2cccs2)n1` was tested, and the Potency was inconclusive [inhibitor, partial curve]. With `O=C(N=Nc1c(O)[nH]c2ccc(Br)cc12)c1ccccc1-n1cccc1` the Potency was active: 12.6 µM. In the case of `COc1cc(/C=C2/SC(=Nc3ccc(O)cc3)NC2=O)cc(OC)c1O`, the “activity change, negative = inhibition” value was inactive: 15.6%. With `COC(=O)c1cccc(S(=O)(=O)N(Cc2ccco2)Cc2cc3cc(OC)ccc3[nH]c2=O)c1` the Potency was inconclusive [inhibitor, single point]. In the case of `O=C(CN1C(=O)c2ccccc2C1=O)Nc1nccs1`, the “activity change, negative = inhibition” value was inactive: 3.96%. In the case of `Cc1nc(SCC(=O)Nc2cc(C(N)=O)cc(C(N)=O)c2)c2c(C)c(C)sc2n1`, the Potency was inconclusive [inhibitor, single point]. With `COc1ccc(C(=O)Nc2cccc(-c3nnc(-c4ccco4)o3)c2)cc1` the Potency was inconclusive [inhibitor, single point]. With `COc1ccc(C(NC(=O)/C=C/c2ccco2)c2ccc(OC)c(OC)c2)cc1OC` the “activity change, negative = inhibition” value was inactive: 2.76%. With `CCCCC(=O)Nc1nnc(SCC(=O)NC2CCCC2)s1` the “activity change, negative = inhibition” value was inactive: -1.04% [at 46.1 µM]. `Cc1ccc(C2Nc3ccc4ccccc4c3C3=C2C(=O)CC(C)(C)C3)o1` (configuration not stated) was tested, and the Potency was inconclusive [inhibitor, partial curve, poor fit].
